This note sets out measurements from the supplement of paper PMC9135407.

The test concerns primary human hepatic stellate cells (donor 1). Description: scaled lipid accumulation score (0 = DMSO-like, 1 = nortriptyline-like); higher = stronger HSC inactivation (lipid re-accumulation), active = hit call of the paper. The conditions noted are these: 48 h.
Where [1] appears, read: library stock concentration: 1 mM.
Setting [2] is: library stock concentration: 10 mM.
The mark [3] stands for this setting: library stock concentration: 3.33 mM.
[4] abbreviates: library stock concentration: 5.1 mM.

Several values for one entry are separate records, joined by “and”; a condition that tells them apart may be missing. Equal entries are not always repeated. Structures can show the parent of a compound that is named as a salt. About 620 (11%) of roughly 5,800 compounds showed activity.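 Rule for the calls: active = score above a cut-off or among the top three wells of a plate; in these data no inactive exceeds 0.85.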 The entries are a selection whose mix differs from that of the whole data set. Where only a bound is given, the exact number is not on record here.

Regarding `CCCCC/C=C/C=C1/C=CC(=O)[C@@H]1C/C=C\CCCC(=O)O` [15-deoxy-.DELTA.12,14-Prostaglandin A2], under setting [1], the “scaled lipid accumulation score” value is inactive: ≤ 0.
Take `CCC(=O)OCN1C(=O)C=CC1=O`: the “scaled lipid accumulation score” value under setting [2] was inactive: ≤ -0.001.
Turning to `CC(/C=C1\SC(=S)N(CC(=O)O)C1=O)=C\c1ccccc1` [Epalrestat], the “scaled lipid accumulation score” value runs as follows: under setting [3], inactive: ≤ 0; under setting [2], inactive: ≤ 0.
For `c1ccc(CNc2nc(NCc3ccccc3)c3ccccc3n2)cc1`, the “scaled lipid accumulation score” value under setting [3] is inactive: 0.706 and the “scaled lipid accumulation score” value under setting [2] is inactive: 0.074.
For the compound `COc1cccc(NC(=O)/C=C/c2ccc(Cl)cc2)c1`, the “scaled lipid accumulation score” value under setting [2] is active: 1.2.
On the same count and under the same terms, then `Cc1nc(N)sc1-c1ccnc(Nc2ccc(N3CCOCC3)cc2)n1`, with active: 1.02; and `CC(=O)[C@]1(O)Cc2c(O)c3c(c(O)c2[C@@H](O[C@H]2C[C@H](N)[C@H](O)[C@H](C)O2)C1)C(=O)c1ccccc1C3=O`, with inactive: 0.372.
In the case of `CC(=O)[C@]1(O)Cc2c(O)c3c(c(O)c2[C@@H](O[C@H]2C[C@H](N)[C@H](O)[C@H](C)O2)C1)C(=O)c1ccccc1C3=O` [Idarubicin], the “scaled lipid accumulation score” value reads like this: (library stock concentration: 4 mM) inactive: 0.387; under setting [2], inactive: ≤ -0.07.
In the case of `CC(=O)[C@]1(O)Cc2c(O)c3c(c(O)c2[C@@H](O[C@H]2C[C@H](N)[C@H](O)[C@H](C)O2)C1)C(=O)c1ccccc1C3=O` [Idarubicin HCl], the “scaled lipid accumulation score” value is inactive: 0.288 under setting [3] and inactive: 0.179 under setting [2].
On to `O=c1oc2ccccc2c(O)c1Cc1c(O)c2ccccc2oc1=O` [Dicumarol], for which the “scaled lipid accumulation score” value is inactive: ≤ 0. Moreover, the “scaled lipid accumulation score” value (library stock concentration: 5.9 mM) is inactive: 0.012. Further, under setting [2], the “scaled lipid accumulation score” value was inactive: ≤ 0.
Consider `O=c1oc2ccccc2c(O)c1Cc1c(O)c2ccccc2oc1=O` [Dicoumarol], for which the “scaled lipid accumulation score” value runs as follows: under setting [3], inactive: ≤ 0; under setting [2], inactive: ≤ -0.001.
With `Cn1ccc2cc(NC(=O)Nc3cccnc3)ccc21`, the “scaled lipid accumulation score” value under setting [2] is inactive: ≤ 0 and inactive: ≤ -0.006.
As for `CS(=O)(=O)N1CCc2c(-c3cnc(N)nc3)nc(N3CCOCC3)nc21`, the “scaled lipid accumulation score” value is inactive: ≤ 0 under setting [3] and inactive: ≤ 0 under setting [2].
With `COc1c2occc2c(OC)c2c(=O)cc(C)oc12` [Khellin], the “scaled lipid accumulation score” value is inactive: ≤ 0. The “scaled lipid accumulation score” value under setting [2] was inactive: 0.326.
Take `CCCCC[C@H](O)/C=C/[C@@H]1[C@@H](CCCCCCCO)[C@@H](O)C[C@H]1O` [Prostaglandin F1.alpha. Alcohol]: under setting [1], the “scaled lipid accumulation score” value was inactive: ≤ 0.
Still for that read-out and setting: next, `CCCCC[C@H](O)/C=C/[C@H]1CC[C@H](O)[C@@H]1CCCCCCC(=O)O` [11-deoxy Prostaglandin F1.alpha.]: inactive: ≤ 0.
As for `C1CNCCN1` [Piperazine], the “scaled lipid accumulation score” value reads like this: under setting [2], inactive: ≤ 0; (library stock concentration: 23.2 mM) inactive: 0.066.
On to `Cc1ccccc1CN1C2=NCCN2C(=O)C2=C1CCN(Cc1ccccc1)C2`, for which the “scaled lipid accumulation score” value is inactive: ≤ -0.009 under setting [3] and inactive: ≤ 0 under setting [2].
Regarding `Nc1cc(C(Cl)=C(Cl)Cl)c(S(N)(=O)=O)cc1S(N)(=O)=O` [Clorsulon], the “scaled lipid accumulation score” value is inactive: 0.01. Also, the “scaled lipid accumulation score” value under setting [3] is inactive: ≤ 0. The “scaled lipid accumulation score” value (library stock concentration: 5.3 mM) was inactive: ≤ 0. Under setting [2], the “scaled lipid accumulation score” value was inactive: ≤ 0.
Turning to `COc1ccc(CCN(C)CCCC(C#N)(c2cc(OC)c(OC)c(OC)c2)C(C)C)cc1OC` (configuration not stated), the “scaled lipid accumulation score” value under setting [2] is inactive: 0.616.
On to `CC[C@H](C)C(=O)O[C@H]1CCC=C2C=C[C@H](C)[C@H](CC[C@@H]3C[C@@H](O)CC(=O)O3)[C@H]21` [mevastatin], for which the “scaled lipid accumulation score” value under setting [2] was inactive: 0.3.
For `CC[C@H](C)C(=O)O[C@H]1CCC=C2C=C[C@H](C)[C@H](CC[C@@H]3C[C@@H](O)CC(=O)O3)[C@H]21` [Mevastatin], the “scaled lipid accumulation score” value reads like this: under setting [3], inactive: ≤ 0; under setting [4], inactive: 0.086; under setting [2], inactive: 0.482 and inactive: 0.651 and inactive: 0.558.
As to `C[N+](C)(C)CC[N+]1(C)Cc2c(Cl)c(Cl)c(Cl)c(Cl)c2C1` [Chlorisondamine diiodide], the “scaled lipid accumulation score” value under setting [2] was inactive: ≤ 0.
The same measure, in the same setting: then `COc1ccc2c(c1)CCC1C2CC[C@@]2(C)C1CC[C@@H]2NCCCCCCN1C(=O)CCC1=O` (some centres not stated), with active: 0.875.
In the case of `C[C@H](CCC(=O)O)[C@H]1CC[C@H]2[C@@H]3[C@H](O)C[C@@H]4C[C@H](O)CC[C@]4(C)[C@H]3CC[C@]12C` [Chenodeoxycholic Acid], the “scaled lipid accumulation score” value is, setting by setting: under setting [3], inactive: ≤ 0; under setting [2], inactive: ≤ 0.
For the compound `C[C@H](CCC(=O)O)[C@H]1CC[C@H]2[C@@H]3[C@H](O)C[C@@H]4C[C@H](O)CC[C@]4(C)[C@H]3CC[C@]12C` [Chenodiol], the “scaled lipid accumulation score” value was inactive: ≤ 0. The “scaled lipid accumulation score” value under setting [4] is inactive: ≤ 0. Further, the “scaled lipid accumulation score” value under setting [2] was inactive: ≤ 0.
`NNc1nncc2ccccc12` [Hydralazine hydrochloride]: the “scaled lipid accumulation score” value is inactive: ≤ 0. The “scaled lipid accumulation score” value under setting [2] was inactive: 0.079 and inactive: ≤ 0.
For the compound `COc1ccc([C@@H]2CC(=O)c3c(O)cc(O[C@@H]4O[C@H](CO)[C@@H](O)[C@H](O)[C@H]4O[C@@H]4O[C@@H](C)[C@H](O)[C@@H](O)[C@H]4O)cc3O2)cc1O` [Neohesperidin], the “scaled lipid accumulation score” value is inactive: ≤ 0 under setting [3] and inactive: 0.039 under setting [2].
For the compound `CC(=O)OCC(CCn1cnc2cnc(N)nc21)COC(C)=O`, the “scaled lipid accumulation score” value under setting [2] is inactive: 0.002.
Regarding `CC(=O)OCC(CCn1cnc2cnc(N)nc21)COC(C)=O` [Famciclovir], the “scaled lipid accumulation score” value is, setting by setting: under setting [3], inactive: 0.06; (library stock concentration: 6.2 mM) inactive: 0.002 and inactive: ≤ 0; under setting [2], inactive: 0.008 and inactive: 0.195 and inactive: 0.085.
Turning to `NCC(O)CC(=O)O` (configuration not stated) [Aminohydroxybutyric acid], under setting [2], the “scaled lipid accumulation score” value is inactive: 0.017.
Regarding `Oc1cccc(-c2nc(N3CCOCC3)c3oc4ncccc4c3n2)c1`, under setting [2], the “scaled lipid accumulation score” value is active: 0.923.
On to `O=C1OC2(c3ccc(O)cc3Oc3cc(OS(=O)(=O)c4c(F)c(F)c(F)c(F)c4F)ccc32)c2ccccc21` (configuration not stated) [Pentafluorobenzenesulfonyl fluorescein], for which, under setting [1], the “scaled lipid accumulation score” value was inactive: ≤ 0.
`CC(C)CC(CC(=O)NO)C(=O)N[C@@H](Cc1ccc2ccccc2c1)C(=O)N[C@@H](C)C(=O)NCCN` (some centres not stated): the “scaled lipid accumulation score” value is inactive: ≤ -0.009 under setting [3] and inactive: 0.152 under setting [2].
As to `O=C(/C=C/c1ccc(O)c(O)c1)OCCc1ccccc1` [Caffeic Acid phenylethyl ester], under setting [1], the “scaled lipid accumulation score” value was inactive: ≤ 0.
Regarding `O=C(/C=C/c1ccc(O)c(O)c1)OCCc1ccccc1` [Caffeic acid phenethyl ester], the “scaled lipid accumulation score” value under setting [2] was inactive: 0.716 and inactive: 0.118.
`O=C(/C=C/c1ccc(O)c(O)c1)OCCc1ccccc1` [Caffeic Acid Phenethyl Ester]: the “scaled lipid accumulation score” value under setting [3] was inactive: 0.273 and the “scaled lipid accumulation score” value under setting [2] is inactive: 0.498.
